# Experimental data: the supplement of paper PMC10369915
# This is one part of the list. Rule as the data show it: active = 3.2 or more and inactive = the rest. Most of these values are background signal.
# B1: SHUT_ADE12_349 (peptide)
# chain: KIEECLHYTFRHGYV
# B2: SHUT_ADE12_349_YA (peptide)
# chain: KIEECLHYTFRHGAV
# B3: SHUT_ADE40_332 (peptide)
# chain: KVEESLHYAFRHGYV
# B4: SHUT_ADE40_332_YA (peptide)
# chain: KVEESLHYAFRHGAV
# B5: SHUT_ADE41_334 (peptide)
# chain: KIEESLHYAFRHGYV
# B6: SHUT_ADE41_334_YA (peptide)
# chain: KIEESLHYAFRHGAV
# B7: DNB2_ADE02_195 (peptide)
# chain: ARALMDKYHVDNDLK
# B8: DNB2_ADE04_174 (peptide)
# chain: MNMLMERYRVESDLK
# B9: DNB2_ADE07_180 (peptide)
# chain: MAVLMERYRLDNDLR
# B10: DNB2_ADE12_150 (peptide)
# chain: MAMLMEKYHVDHDER
# B11: DNB2_ADE40_141 (peptide)
# chain: MIKLMEKYHVEAEEK
# B12: DNB2_ADE41_142 (peptide)
# chain: MNVLMEKYHVENDEK
# B13: SPEN_Y632_YF (peptide)
# chain: NQDRTYFESVR
# Target: SHP2 C-SH2 domain E139D
# Test: enrichment score (SH2-bound / input frequency) (ratio); bacterial display of known human phosphotyrosine sites (pTyr-Var adds point mutants) read by sequencing; higher = stronger binding; tyrosines were phosphorylated by kinases first
# Settings: peptide library: Human pTyr
# 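Also: displayed peptides selected on beads carrying the immobilized SH2 domain, with library peptides lacking any tyrosine serving as negative controls.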
row,Binder,enrichment score
1,B1,inactive: 1.88
2,B2,inactive: 1.42
3,B3,inactive: 1.45
4,B4,inactive: 1.33
5,B5,inactive: 1.69
6,B6,inactive: 1.23
7,B7,inactive: 0.837
8,B8,inactive: 0.871
9,B9,inactive: 0.936
10,B10,inactive: 1.15
11,B11,inactive: 1.56
12,B12,inactive: 0.612

# Target: SHP2 C-SH2 domain wild-type
# Test: as above
# Settings: peptide library: Human pTyr
row,Binder,enrichment score
1,B1,inactive: 1.62
2,B2,inactive: 1.27
3,B3,inactive: 1.45
4,B4,inactive: 1.35
5,B5,inactive: 1.43
6,B6,inactive: 1.36
7,B7,inactive: 0.594
8,B8,inactive: 0.646
9,B9,inactive: 0.749
10,B10,inactive: 1.11
11,B11,inactive: 1.61
12,B12,inactive: 0.921

# Target: SHP2 N-SH2 domain L43F
# Test: as above
# Settings: peptide library: Human pTyr
row,Binder,enrichment score
1,B1,inactive: 1.29
2,B2,inactive: 1.26
3,B3,inactive: 1.27
4,B4,inactive: 0.887
5,B5,inactive: 1.6
6,B6,inactive: 0.951
7,B7,inactive: 0.741
8,B8,inactive: 0.743
9,B9,inactive: 0.723
10,B10,inactive: 1.04
11,B11,inactive: 1.46
12,B12,inactive: 1.03

# Target: SHP2 N-SH2 domain T42A
# Test: as above
# Settings: peptide library: Human pTyr
row,Binder,enrichment score
1,B1,inactive: 1.44
2,B2,inactive: 1.52
3,B3,inactive: 1.24
4,B4,inactive: 0.911
5,B5,inactive: 1.36
6,B6,inactive: 1.01
7,B7,inactive: 0.778
8,B8,inactive: 0.74
9,B9,inactive: 0.667
10,B10,inactive: 0.846
11,B11,inactive: 1.26
12,B12,inactive: 0.738

# Target: SHP2 N-SH2 domain T52S
# Test: as above
# Settings: peptide library: Human pTyr
row,Binder,enrichment score
1,B1,inactive: 1.34
2,B2,inactive: 1.27
3,B3,inactive: 1.33
4,B4,inactive: 0.995
5,B5,inactive: 1.69
6,B6,inactive: 0.937
7,B7,inactive: 0.911
8,B8,inactive: 0.725
9,B9,inactive: 0.783
10,B10,inactive: 0.88
11,B11,inactive: 1.47
12,B12,inactive: 0.818

# Target: SHP2 N-SH2 domain wild-type
# Test: as above
# Settings: peptide library: Human pTyr
row,Binder,enrichment score
1,B1,inactive: 1.6
2,B2,inactive: 1.57
3,B3,inactive: 1.35
4,B4,inactive: 1.07
5,B5,inactive: 2.04
6,B6,inactive: 1.29
7,B7,inactive: 0.752
8,B8,inactive: 1.03
9,B9,inactive: 0.813
10,B10,inactive: 1.17
11,B11,inactive: 1.8
12,B12,inactive: 1.44

# Target: SHP2 C-SH2 domain E139D
# Test: as above
# Settings: peptide library: pTyr-Var
row,Binder,enrichment score
1,B13,inactive: 0.66

# Target: SHP2 C-SH2 domain wild-type
# Test: as above
# Settings: peptide library: pTyr-Var
row,Binder,enrichment score
1,B13,inactive: 0.678

# Target: SHP2 N-SH2 domain L43F
# Test: as above
# Settings: peptide library: pTyr-Var
row,Binder,enrichment score
1,B13,inactive: 0.736

# Target: SHP2 N-SH2 domain T42A
# Test: as above
# Settings: peptide library: pTyr-Var
row,Binder,enrichment score
1,B13,inactive: 0.586

# Target: SHP2 N-SH2 domain T52S
# Test: as above
# Settings: peptide library: pTyr-Var
row,Binder,enrichment score
1,B13,inactive: 0.734

# Target: SHP2 N-SH2 domain wild-type
# Test: as above
# Settings: peptide library: pTyr-Var
row,Binder,enrichment score
1,B13,inactive: 0.944
